Consider two molecules from paper PMC12666567.

Amino acid sequences for entries named in this document (tags omitted).
UniProt Q9UBN7: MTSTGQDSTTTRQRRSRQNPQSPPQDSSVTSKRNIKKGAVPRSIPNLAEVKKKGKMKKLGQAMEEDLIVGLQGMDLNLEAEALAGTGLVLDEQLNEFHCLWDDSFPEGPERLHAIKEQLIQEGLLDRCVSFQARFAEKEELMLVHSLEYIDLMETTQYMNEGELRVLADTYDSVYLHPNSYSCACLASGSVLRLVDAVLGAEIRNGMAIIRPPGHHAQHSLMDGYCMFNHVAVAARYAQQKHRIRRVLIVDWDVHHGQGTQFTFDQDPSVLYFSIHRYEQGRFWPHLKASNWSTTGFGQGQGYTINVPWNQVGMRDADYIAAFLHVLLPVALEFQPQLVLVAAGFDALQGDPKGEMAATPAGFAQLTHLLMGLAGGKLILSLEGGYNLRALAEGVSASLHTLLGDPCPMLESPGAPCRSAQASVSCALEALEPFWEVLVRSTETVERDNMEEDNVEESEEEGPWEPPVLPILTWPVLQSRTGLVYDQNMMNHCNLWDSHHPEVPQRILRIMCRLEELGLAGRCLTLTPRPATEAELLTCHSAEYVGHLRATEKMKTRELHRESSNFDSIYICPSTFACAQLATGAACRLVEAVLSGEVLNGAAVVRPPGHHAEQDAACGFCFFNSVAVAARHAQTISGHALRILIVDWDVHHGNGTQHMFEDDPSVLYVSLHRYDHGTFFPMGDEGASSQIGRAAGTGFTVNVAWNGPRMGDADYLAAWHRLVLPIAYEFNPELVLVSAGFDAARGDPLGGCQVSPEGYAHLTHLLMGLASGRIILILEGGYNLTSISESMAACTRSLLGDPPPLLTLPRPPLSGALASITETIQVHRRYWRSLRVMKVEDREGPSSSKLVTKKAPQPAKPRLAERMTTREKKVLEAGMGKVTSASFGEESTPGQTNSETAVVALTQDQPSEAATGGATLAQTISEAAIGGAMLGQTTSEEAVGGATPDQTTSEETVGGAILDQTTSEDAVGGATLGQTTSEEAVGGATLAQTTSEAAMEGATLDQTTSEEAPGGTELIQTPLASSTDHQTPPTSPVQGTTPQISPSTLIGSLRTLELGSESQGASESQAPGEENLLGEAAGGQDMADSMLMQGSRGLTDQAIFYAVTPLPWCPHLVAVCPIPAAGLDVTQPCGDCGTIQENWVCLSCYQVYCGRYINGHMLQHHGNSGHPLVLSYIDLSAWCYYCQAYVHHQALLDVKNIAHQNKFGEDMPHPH

No constants are given. Whether binding was seen depends on the method and setting. Binding seen in cells or lysates may run through a third protein. Some results given as binding are weak or reduced against the parent protein; the word gives no strength. Where a sequence is shown, tags or fusion partners need not be part of it.

Assay [1] addresses Flag-tagged histone deacetylase 6 (HDAC6) (human) (UniProt Q9UBN7). Put plainly: co-IP; HEK293T cells co-transfected with tagged plasmids; lysed in IP buffer (20 mM Tris, pH 7.5, 150 mM NaCl, 1% Triton X-100) with protease/deacetylase/phosphatase inhibitors; anti-tag antibody (FLAG, HA) at 4 °C overnight, Protein A/G magnetic beads, Western blotting; in Fig. 4C with or without co-expressed Flag-HDAC6. (In western blotting, separated proteins are transferred to a membrane and probed.)

The target of assay [2] is HA-tagged stimulator of interferon genes (STING), full length (human), Q86WV6. Described as above. To be noted: remark: other sources report otherwise.

B1: HA-tagged TBK1 (enzyme, UniProt Q9UHD2 1-729)
chain: MQSTSNHLWLLSDILGQGATANVFRGRHKKTGDLFAIKVFNNISFLRPVDVQMREFEVLKKLNHKNIVKLFAIEEETTTRHKVLIMEFCPCGSLYTVLEEPSNAYGLPESEFLIVLRDVVGGMNHLRENGIVHRDIKPGNIMRVIGEDGQSVYKLTDFGAARELEDDEQFVSLYGTEEYLHPDMYERAVLRKDHQKKYGATVDLWSIGVTFYHAATGSLPFRPFEGPRRNKEVMYKIITGKPSGAISGVQKAENGPIDWSGDMPVSCSLSRGLQVLLTPVLANILEADQEKCWGFDQFFAETSDILHRMVIHVFSLQQMTAHKIYIHSYNTATIFHELVYKQTKIISSNQELIYEGRRLVLEPGRLAQHFPKTTEENPIFVVSREPLNTIGLIYEKISLPKVHPRYDLDGDASMAKAITGVVCYACRIASTLLLYQELMRKGIRWLIELIKDDYNETVHKKTEVVITLDFCIRNIEKTVKVYEKLMKINLEAAELGEISDIHTKLLRLSSSQGTIETSLQDIDSRLSPGGSLADAWAHQEGTHPKDRNVEKLQVLLNCMTEIYYQFKKDKAERRLAYNEEQIHKFDKQKLYYHATKAMTHFTDECVKKYEAFLNKSEEWIRKMLHLRKQLLSLTNQCFDIEEEVSKYQEYTNELQETLPQKMFTASSGIKHTMTPIYPSSNTLVEMTLGMKKLKEEMEGVVKELAENNHILERFGSLTMDGGLRNVDCL
Consider B1, for which the binding entry in assay [1] is listed as “binds”.

B2: Myc-tagged TBK1, Q9UHD2 1-729 (enzyme)
chain: MQSTSNHLWLLSDILGQGATANVFRGRHKKTGDLFAIKVFNNISFLRPVDVQMREFEVLKKLNHKNIVKLFAIEEETTTRHKVLIMEFCPCGSLYTVLEEPSNAYGLPESEFLIVLRDVVGGMNHLRENGIVHRDIKPGNIMRVIGEDGQSVYKLTDFGAARELEDDEQFVSLYGTEEYLHPDMYERAVLRKDHQKKYGATVDLWSIGVTFYHAATGSLPFRPFEGPRRNKEVMYKIITGKPSGAISGVQKAENGPIDWSGDMPVSCSLSRGLQVLLTPVLANILEADQEKCWGFDQFFAETSDILHRMVIHVFSLQQMTAHKIYIHSYNTATIFHELVYKQTKIISSNQELIYEGRRLVLEPGRLAQHFPKTTEENPIFVVSREPLNTIGLIYEKISLPKVHPRYDLDGDASMAKAITGVVCYACRIASTLLLYQELMRKGIRWLIELIKDDYNETVHKKTEVVITLDFCIRNIEKTVKVYEKLMKINLEAAELGEISDIHTKLLRLSSSQGTIETSLQDIDSRLSPGGSLADAWAHQEGTHPKDRNVEKLQVLLNCMTEIYYQFKKDKAERRLAYNEEQIHKFDKQKLYYHATKAMTHFTDECVKKYEAFLNKSEEWIRKMLHLRKQLLSLTNQCFDIEEEVSKYQEYTNELQETLPQKMFTASSGIKHTMTPIYPSSNTLVEMTLGMKKLKEEMEGVVKELAENNHILERFGSLTMDGGLRNVDCL
On to B2, for which the binding result in assay [2] is recorded as “binds”.
